From patent publication US20050203119A1, “Dihydropyridine compounds for treating or preventing metabolic disorders” (priority 2003, published 2005)
At least one read-out could not be matched to a standard name with certainty. Marks after values point to notes of the source that are not given here.

Each compound was assayed on male db/db mice (BKS.Cg-m+/+Lepr db/J) (assay: Intraperitoneal glucose tolerance test (IPGTT) in db/db mice (Example 122, FIGS. 3 and 5)). Conditions: oral dose 1X (relative to 50 mg/kg Compound 39) at -3 hr, vs vehicle (Formula 2).
Assay type: in vivo, mouse

Structure (SMILES)	Ave. % Change in Glucose Intolerance at +45 min
CCOC(=O)C1=C(COCCN)NC2=C(C(=O)CC(C)(C)C2)C1c1ccccc1Cl (stereo not drawn) [Compound 1, 2-(2-amino-ethoxymethyl)-4-(2-chloro-phenyl)-7,7-dimethyl-5-oxo-1,4,5,6,7,8-Hexahydro-quinoline-3-carboxylic acid ethyl ester]	−9.8%
CCOC(=O)C1=C(COCCN)NC2=C(C(=O)CC(C)(C)C2)C1c1ccc2c(c1)OCO2 (stereo not drawn) [Compound 3, 2-(2-amino-ethoxymethyl)-4-benzo[1,3]dioxol-5-yl-7,7-dimethyl-5-oxo-1,4,5,6,7,8-hexahydro-quinoline-3-carboxylic acid ethyl ester]	−1.3%
CCOC(=O)C1=C(COCCN)NC2=C(C(=O)CC(C)(C)C2)C1c1cccc(Cl)c1Cl (stereo not drawn) [Compound 6, 2-(2-amino-ethoxymethyl)-4-(2,3-dichloro-phenyl)-7,7-dimethyl-5-oxo-1,4,5,6,7,8-hexahydro-quinoline-3-carboxylic acid ethyl ester]	−10.1%
CCOC(=O)C1=C(COCCN)NC2=C(C(=O)CC(C)(C)C2)C1c1ccccn1 (stereo not drawn) [Compound 9, 2-(2-amino-ethoxymethyl)-7,7-dimethyl-5-oxo-4-pyridin-2-yl-1,4,5,6,7,8-hexahydro-quinoline-3-carboxylic acid ethyl ester]	+1.2%
CCOC(=O)C1=C(COCCN)NC2=C(C(=O)CC(C)(C)C2)C1c1ccccc1F (stereo not drawn) [Compound 12, 2-(2-amino-ethoxymethyl)-4-(2-fluoro-phenyl)-7,7-dimethyl-5-oxo-1,4,5,6,7,8-hexahydro-quinoline-3-carboxylic acid ethyl ester]	−21.6%
CCOC(=O)C1=C(COCCN)NC2=C(C(=O)CC(C)(C)C2)C1c1ccccc1OC (stereo not drawn) [Compound 16, 2-(2-Amino-ethoxymethyl)-4-(2-methoxy-phenyl)-7,7-dimethyl-5-oxo-1,4,5,6,7,8-hexahydro-quinoline-3-carboxylic acid ethyl ester]	−41.9%
CCOC(=O)C1=C(COCCN)NC2=C(C(=O)CC(C)(C)C2)C1c1cccnc1 (stereo not drawn) [Compound 39, 2-(2-Amino-ethoxymethyl)-7,7-dimethyl-5-oxo-4-pyridin-3-yl-1,4,5,6,7,8-hexahydro-quinoline-3-carboxylic acid ethyl ester]	−35.4* %
CC1(C)CC(=O)C2=C(C1)NC(COCCN)=C(C#N)C2c1ccccc1Cl (stereo not drawn) [Compound 41, 2-(2-Amino-ethoxymethyl)-4-(2-chloro-phenyl)-7,7-dimethyl-5-oxo-1,4,5,6,7,8-hexahydro-quinoline-3-carbonitrile]	−19.0%
CCOC(=O)C1=C(COCCN)NC2=C(C(=O)CC(C)(C)C2)C1c1cnc2ccccc2c1 (stereo not drawn) [Compound 43, 2-(2-Amino-ethoxymethyl)-7,7-dimethyl-5-oxo-4-quinolin-3-yl-1,4,5,6,7,8-hexahydro-quinoline-3-carboxylic acid ethyl ester]	−16.5** %
CCOC(=O)C1=C(COCCN)NC2=C(C(=O)CC(C)(C)C2)C1c1ccncc1 (stereo not drawn) [Compound 45, 2-(2-Amino-ethoxymethyl)-7,7-dimethyl-5-oxo-4-pyridin-4-yl-1,4,5,6,7,8-hexahydro-quinoline-3-carboxylic acid ethyl ester]	−1.2%
CCOC(=O)C1=C(COCCN)N(C)C2=C(C(=O)CC(C)(C)C2)C1c1cccnc1 (stereo not drawn) [Compound 66, 2-(2-Amino-ethoxymethyl)-1,7,7-trimethyl-5-oxo-4-pyridin-3-yl-1,4,5,6,7,8-hexahydro-quinoline-3-carboxylic acid ethyl ester]	−45.2%
CCOC(=O)C1=C(COCCO)NC2=C(C(=O)CC(C)(C)C2)C1c1cccnc1 (stereo not drawn) [Compound 67, 2-(2-Hydroxy-ethoxymethyl)-7,7-dimethyl-5-oxo-4-pyridin-3-yl-1,4,5,6,7,8-hexahydro-quinoline-3-carboxylic acid ethyl ester]	−4.0%
